# Laboratory results taken from the supplement of paper PMC11417369.
# Some of the results follow.
# System: PfAP2-HC AP2 domain (GST-tagged)
# Assay: gcPBM binding intensity (ln(normalized median fluorescence intensity)); higher = stronger DNA binding
# Summary of the method: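 Each value is the highest Masliner-normalised natural-log median intensity across replicate spots of either orientation of a probe. The probes were primer-extended double-stranded 36-bp intergenic genomic sequences on an Agilent 4 × 180k array, alongside negative controls, exposed for 1 h to GST-tagged P. falciparum DNA-binding domains expressed in E. coli. Bound protein was picked up with Alexa488 anti-GST antibody and scanned at 488 nm.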
row,Sequence,gcPBM binding intensity (ln)
1,CACATACATATATACACACACAAAATAATAAAATAA [CACACA_site2308],10.4
2,AAAATTATATTTTATAGAAATTTAAATAAATATATA [GTGCAC_negctrl_site199],9.4
3,TTTTTAAAAATAACAGAAAAGAATTACAGATTTTTT [XGTACX_negctrl_site472],9.41
4,TTTTCTTGATTTTGTAGTACATTTTTACGATATTTT [XGTACX_site63],9.91
5,ATGTAAATTATTATTCTATTGTTATATACACAATAT [XGTACX_negctrl_site332],9.75
6,ATATAGTTCGTTTATACACACATGATAAGATATTTA [CACACA_site1947],9.69
7,AAATCACTTTTTAAGTGTACTTGGTCTTTCTCATTT [XGTACX_site7221],9.68
8,TTTTTTACATCCATAAAACTTTTTCTCTTTTAAAAT [CACACA_negctrl_site1745],9.43
9,AGAGAGAAAGGTATAACATGCGATAAATTTTAGAAG [TGCATGCA_site37],9.68
10,TGTATTAATATGGTAATACACACTAATATACTTTTG [CACACA_site1610],9.72
11,TGTAGAATTTCCTGAACATGCAAATAATTTTCCTTA [TGCATGCA_site881],9.42
12,AAAAAATTGAAGGAGTGTACATTTATACTTTATTTT [XGTACX_site8623],9.63
13,TGTTATTCGACATATACACACAAATAACAATTTAAA [CACACA_site5076],9.73
14,AACATAATAAAAATGGATATAATTCAAAGTTTGTAA [TGCATGCA_negctrl_site529],9.76
15,AGGTCTGTTTTATATTGTACATAAAAAGTGCACATG [XGTACX_site4529],9.63
16,TAATTATAAATTATAGTGCATAAAATTGTAGCATAA,9.65
17,AAAATATGATATGAAAAATTTGTTATATATACATAA [CACACA_negctrl_site1529],9.62
18,GACATTTGTGAGCTTGAGCCGTCAAACCACTAAATA [CACACA_negctrl_site552],9.33
19,CATATTCCAAGAATGTGTACATAATTTTTTTTTTTT [XGTACX_site4310],9.52
20,CTCATAATTTCTGAACGTACGTATTTCTCATTTTTA [XGTACX_site7296],9.69
21,TTCTATAAGTATAAATGTACAAAAAAAACATCATTC [XGTACX_site5450],9.68
22,ATAATTCTAAATAAATGTACACACAAAAATAAATGT [XGTACX_site3547],9.91

row,Sequence,gcPBM binding intensity (ln)
1,ATTGTATGCACGTCTGCACACTTTTTTTTTTTTTTT [CACACA_site2082],9.79
2,TAACGCATGAATATAATATATATATATATAAAAATA [GTGCAC_negctrl_site218],9.65
3,GTTAATTGAAGATTCACACATAAATATATATATAAT [CACACA_site5482],9.61
4,TATAGATGTATGTACATACACACATATATAAATAAA [CACACA_site1789],10
5,TGTTAATTTATATTATGTACTTATAATTATCGTTTG [XGTACX_site1032],9.74
6,AACTTTATACTTTTTTGTACTTAACCCTTACATTTT [XGTACX_site5798],10.3
7,TTTATATATTTATTCACACATATAATATTCCGTCGT [CACACA_site6120],9.66
8,AACATACATAAACACACACACACACCCACACCCACA [CACACA_site8058],10.8
9,TTTATGAAACAGTGCACACATAAAAATATATACATA [CACACA_site2992],9.79
10,TAGATAAATGGGTATACACACATATACATAAATATA [CACACA_site375],9.93
11,GTAAGATTTCTTGTTGCATGCGGTAAAAAGTAAAAT [TGCATGCA_site469],9.69
12,AAAAAGAAATATTTATGTACATAATAATAATATTTT [XGTACX_site4693],9.65
13,AATATAGATACATATACACACACACCCATACATATA [CACACA_site9137],10.6
14,CAATTAAATATATGAACACACATGTGAACTTTCTAT [CACACA_site3977],9.89
15,AAATACCTGATATATACACACTATGTTTTTCTTTTT [CACACA_site6680],10.1
16,TATTAAATTATATAGACACACATTATATATATATAT [CACACA_site4345],9.78
17,ATAATTATATAAATATATATAATATATATATGAAAA [XGTACX_negctrl_site357],9.5
18,AAAATGGGTTAGCACATACACACCAATATATTATAT [CACACA_site3082],9.99
19,AAGAAAAACATTACGTGTACCAAAAGGCCTGTCAAC [XGTACX_site267],9.94
20,GTAACAAATAAAATAACACACATGTCGAAATGTATG [CACACA_site2971],10.4
21,GAAATACATTTTAAAAAATAAGTAATTATAAAATAA [TGCATGCA_negctrl_site303],9.54
22,ATTCATCCAATAATGTGAATTATCATGATAAACTTA [TGCATGCA_negctrl_site406],9.52

row,Sequence,gcPBM binding intensity (ln)
1,TTTATAAATAAACACACACACATGTGAACATAAAAA [CACACA_site5110],10.5
2,GATACCTATAGACACACACACATACCTATATACATA [CACACA_site7586],10.9
3,ATCAAAATTGTCATTACACACCTTTATTTTTAGAAT [CACACA_site1813],9.76
4,ATTATTCTATATGAAACATGCATACATTTGTATTTT [TGCATGCA_site823],9.82
5,ATATATGTAAATGAATGTACATTATTTTATATATTA [XGTACX_site8460],9.81
6,TACAACTTAATATGTACACACAAATATATATATATA [CACACA_site5138],9.73
7,AAAATAATAAAAAACTGTACGAATTAAAAATTAACA [XGTACX_site8454],9.76
8,TCCAATAATTTATAAAAAAAAAAAGGGAAAATGTAT [TGCATGCA_negctrl_site492],9.37
9,TTGGATTTTTCCTATGAACACACGGGGTTACAATTA [CACACA_site449],9.54
10,TTAATATGAGAATAATGTACAAGAAAATATTACATA [XGTACX_site6609],9.59
11,ATATATTTATTATTAACATGCAATCATTATATATAA [TGCATGCA_site404],9.29
12,CTTTCATTTCTATCTACACACATATTTTTTCCAAGT [CACACA_site2972],10
13,AAAAGAAAAAAAAGTACACACATGTATATTAAGCGT [CACACA_site5402],10.1
14,TTAATGTACAGACACCCACACACAAACAAATATATA [CACACA_site8888],10.2
15,TTTTTTTTTCCCCCATGTACATAAATAAGTATATCT [XGTACX_site6965],9.58
16,GCGTGCGTGTACTTAACACACATAATATGTATTTAT [CACACA_site1247],9.83
17,TATATATATAAATACAGTACATATATAATATTTTGA [XGTACX_site637],9.69
18,AAAAATATATATATATATATATATATATTATTTTTT [TGCATGCA_negctrl_site378],9.41
19,TAACTTAATTTTAATGCACACAATTTATATATATAT [CACACA_site6022],9.8
20,AATTATATGAAATAAACACACATATGCAATATTGCA [CACACA_site6988],9.76
21,ATATGTACTATACGCACACACACTCACATATATATA [CACACA_site3239],10.6
22,TTCAAGATTTATTATACACACATATTAAAATATATA [CACACA_site4479],9.59

row,Sequence,gcPBM binding intensity (ln)
1,AAACATTTTCATTTGACACACATCATATATTTATAT [CACACA_site1794],10.1
2,AATCTATCAAAGTGTACATGCAATAAAAAAAAAAAA [TGCATGCA_site103],9.59
3,AAAAAATTATTATGAACACACATTTATTATATTCAT [CACACA_site1566],9.76
4,GAGGTCTTTTTTAATGTGCACATATATATATATATA,9.84
5,TTTTTTTATTAATGTAGTACAATATAATGTTATATT [XGTACX_site2295],9.6
6,TTTTTTTTTTTTTTTACACACTCCAATAAAAAAGAA [CACACA_site2119],9.42
7,TATAAAAATATATTTACACACTATAAATATCGAAAG [CACACA_site6896],9.7
8,TAATTTATAAATATAATATTTATGTATATGATGTTT [CACACA_negctrl_site464],9.56
9,ATTATATATATCAGGTGTACGTAAAAAAAATGGACG [XGTACX_site1028],9.88
10,ATTAAGTATATTTCTGCACACAAAAAAAAAAACCAA [CACACA_site9342],9.88
11,GTATATATATATAAAAGTACATGTTATGAAAAAAAA [XGTACX_site5410],9.84
12,TATATATAGAAACACACACACATATATATATATATA [CACACA_site773],10.5
13,TTTTTTCTCAAAAAAAAAACCTATGGTTATTAAGAT [XGTACX_negctrl_site534],9.23
14,TATAAGAAAAATAACACACACATAAACATAAATACA [CACACA_site5536],10.3
15,AAAAAAAAAAAAAAATGTACATAAAAATGATATAAT [XGTACX_site4096],9.96
16,AAAATTTATAGTATGGTGCATAAAAATATATATATA,9.7
17,TTATAATTCTATTATCTGTTCTTTTTATATTTTTTT [CACACA_negctrl_site855],9.91
18,TTCTAAACACATTGACAAATTAATATATTACAGCAA [GTGCAC_negctrl_site121],9.43
19,TTATTTTTCAATGAAAAGGATTATATATATATATAT [CACACA_negctrl_site757],9.36
20,TGATGAAAATTTTTCTGTACAAAAAGTATGAAGGTA [XGTACX_site8901],9.62
21,ACAATATATAAAATATGTACATAATATATATAATGA [XGTACX_site8731],9.77
22,CCTAATTTTATTAGGGTGCATTTTTAGTTAAATATA,9.5
